Test results taken from PubChem BioAssay AID504333 (National Center for Advancing Translational Sciences (NCATS), 2011).
In all, about 360,000 compounds went through this assay and about 16,000 (4.4%) were called active. The inconclusive results got no clear call from the source; some entries with a clear call stand among them for comparison. The call rests on the fitted dose curve; in most records, active means well fitted inhibition curve with a large enough effect; inconclusive means small, poorly fitted or top-dose-only effect; inactive means no such curve, though single readings can be large or run the other way. Potencies beside an inconclusive call are fits to weak or partial responses and may not hold up. *1 amine or outer side, *2 acyl side, *3 side chain or, on linkers, in order; H or OH if unused. Where a SMILES comes first, the peptide text is derived from it. Bridges are numbered along the chain shown (N, C = ends). [ ]: non-standard residue; d: D form. ξ: configuration not given here. hSer(Ph(2-I,4-NO2,6-CO)) = O=C([C@H](CCOc1c(I)cc([N+](=O)[O-])cc1C(=O)[*:3])N[*:1])[*:2]; ξD = NC(CC(=O)O)C(=O)O

What follows are molecules tested against Bromodomain adjacent to zinc finger domain protein 2B (Homo sapiens) (UniProt Q9UIF8) (assay: qHTS Assay for Inhibitors of BAZ2B). Conditions: AlphaScreen BAZ2B-H3K14Ac peptide displacement; series mostly up to 114 µM.
In short: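 BAZ2B (50 nM) with biotin-H3(5-23)K14Ac peptide (50 nM) in PBS pH 7.4, 0.01% Tween-20, preformed 30 min, then compound 30 min at room temperature; top concentration 110uM. AlphaScreen streptavidin donor/nickel chelate acceptor beads (10 ug/mL final), 20 min dark, signal read.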
Further: nearly all actives have a fitted effect of over 60% in size.
Potency means the concentration at half of the fitted maximal effect; tags describe the fitted curve by direction and shape.

Sequence of UniProt Q9UIF8 (Q9UIF8 whole entry, looked up, the tested form may be a part): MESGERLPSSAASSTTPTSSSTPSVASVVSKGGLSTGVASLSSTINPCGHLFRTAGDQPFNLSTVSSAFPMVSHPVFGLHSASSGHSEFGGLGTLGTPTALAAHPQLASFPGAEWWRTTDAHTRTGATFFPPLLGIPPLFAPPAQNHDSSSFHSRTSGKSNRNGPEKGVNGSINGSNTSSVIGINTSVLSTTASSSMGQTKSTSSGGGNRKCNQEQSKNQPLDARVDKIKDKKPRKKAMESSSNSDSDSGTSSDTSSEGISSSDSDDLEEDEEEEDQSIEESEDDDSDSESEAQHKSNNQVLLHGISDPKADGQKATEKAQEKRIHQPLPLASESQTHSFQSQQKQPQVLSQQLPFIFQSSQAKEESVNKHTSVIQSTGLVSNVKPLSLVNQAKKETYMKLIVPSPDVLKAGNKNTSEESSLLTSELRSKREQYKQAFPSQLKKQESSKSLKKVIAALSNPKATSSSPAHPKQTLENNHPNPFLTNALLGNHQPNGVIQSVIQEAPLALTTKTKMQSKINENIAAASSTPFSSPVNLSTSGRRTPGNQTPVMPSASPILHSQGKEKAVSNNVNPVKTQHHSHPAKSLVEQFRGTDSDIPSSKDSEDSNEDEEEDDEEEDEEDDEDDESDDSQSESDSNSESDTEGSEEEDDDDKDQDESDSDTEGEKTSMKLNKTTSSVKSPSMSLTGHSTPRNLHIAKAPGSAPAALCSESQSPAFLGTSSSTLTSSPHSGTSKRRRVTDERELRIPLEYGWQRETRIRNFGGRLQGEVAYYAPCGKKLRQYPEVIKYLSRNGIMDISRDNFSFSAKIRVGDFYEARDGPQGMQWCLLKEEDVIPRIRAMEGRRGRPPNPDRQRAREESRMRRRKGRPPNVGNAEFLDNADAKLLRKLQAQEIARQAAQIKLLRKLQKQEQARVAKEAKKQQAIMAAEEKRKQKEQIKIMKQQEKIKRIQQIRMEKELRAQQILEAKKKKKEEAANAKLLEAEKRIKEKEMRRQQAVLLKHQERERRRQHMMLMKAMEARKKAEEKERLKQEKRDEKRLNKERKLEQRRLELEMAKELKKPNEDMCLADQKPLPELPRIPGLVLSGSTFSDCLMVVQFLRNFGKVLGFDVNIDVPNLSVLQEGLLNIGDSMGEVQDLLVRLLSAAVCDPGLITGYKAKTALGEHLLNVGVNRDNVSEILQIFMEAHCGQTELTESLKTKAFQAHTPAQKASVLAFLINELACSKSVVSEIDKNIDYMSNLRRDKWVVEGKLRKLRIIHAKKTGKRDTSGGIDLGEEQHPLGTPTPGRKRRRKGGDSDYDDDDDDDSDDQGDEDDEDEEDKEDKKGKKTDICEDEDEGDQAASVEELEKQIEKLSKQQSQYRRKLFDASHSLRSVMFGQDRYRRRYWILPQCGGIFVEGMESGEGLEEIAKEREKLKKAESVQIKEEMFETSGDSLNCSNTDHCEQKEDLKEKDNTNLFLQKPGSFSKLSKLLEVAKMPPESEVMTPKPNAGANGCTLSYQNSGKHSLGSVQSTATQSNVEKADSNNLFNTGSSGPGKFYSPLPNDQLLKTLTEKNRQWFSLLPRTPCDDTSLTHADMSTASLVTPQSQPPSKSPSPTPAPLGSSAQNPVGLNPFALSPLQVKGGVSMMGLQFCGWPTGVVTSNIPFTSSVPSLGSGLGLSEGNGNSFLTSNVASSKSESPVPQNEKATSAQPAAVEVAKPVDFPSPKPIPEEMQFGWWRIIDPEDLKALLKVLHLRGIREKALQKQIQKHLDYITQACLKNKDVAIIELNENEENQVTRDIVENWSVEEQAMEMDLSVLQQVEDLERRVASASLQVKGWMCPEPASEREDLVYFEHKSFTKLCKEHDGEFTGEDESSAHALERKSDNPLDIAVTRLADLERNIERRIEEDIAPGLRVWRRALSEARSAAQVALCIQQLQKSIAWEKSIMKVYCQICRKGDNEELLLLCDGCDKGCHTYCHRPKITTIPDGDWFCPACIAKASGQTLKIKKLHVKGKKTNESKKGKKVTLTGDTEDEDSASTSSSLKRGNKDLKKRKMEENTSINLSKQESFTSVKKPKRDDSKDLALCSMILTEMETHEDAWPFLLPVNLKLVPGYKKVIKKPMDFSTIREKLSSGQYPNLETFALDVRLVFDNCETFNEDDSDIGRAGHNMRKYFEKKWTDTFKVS

| SMILES | Potency |
| --- | --- |
| C=CCNC(=O)c1scc2c1CCCC2 | inactive |
| CSCCC(N=Cc1c(O)n(-c2ccc(F)cc2)c(=O)[nH]c1=O)C(=O)O (configuration not stated) | inconclusive: 79.4 µM [inhibitor, single point] |
| COC(=O)c1ccc(COC(=O)c2ccccc2OC)cc1 | inactive |
| CCOc1nc(Nc2ccc(OC)c(Cl)c2)nc(N2CCN(c3ccc(OC)cc3)CC2)n1 | active: 11.2 µM |
| Cc1ccccc1-n1ncc2c1CC(C)(C)CC2NC(=O)C1=CC(=O)CC(C)(C)O1 (configuration not stated) | inconclusive: 79.4 µM [inhibitor, single point] |
| Cc1cc(=O)[nH]c(-n2[nH]c(C)cc2=O)n1 | active: 11.2 µM |
| Cc1ccnc(SCC(=O)c2ccc([N+](=O)[O-])cc2)n1 | inconclusive: 79.4 µM [inhibitor, single point] |
| CN=C(c1ccco1)n1c(=S)nc(-c2ccco2)n(C)c1=S | inconclusive: 89.1 µM [inhibitor, single point] |
| Cc1cc(C)n(-c2nc(SCCN(C)C)c3c4c(sc3n2)CCCC4)n1 | inconclusive: 22.4 µM [inhibitor, full curve] |
| COc1ccc(N2CCN(C(=O)CCC(=O)N3Cc4ccccc4Oc4ncccc43)CC2)cc1 | active: 39.8 µM |
| CCOc1ccc(NC(=O)CCc2c(C)nc3c(-c4ccccc4)c(C)nn3c2C)cc1 | inactive |
| COc1cccc(N2CCN(C3CC(=O)N(c4ccc(Cl)c(Cl)c4)C3=O)CC2)c1 (configuration not stated) | inconclusive: 25.1 µM [inhibitor, partial curve] |
| COc1ccc(-c2nnc(NC(=O)C3CCCN3S(=O)(=O)c3cccs3)o2)cc1 (configuration not stated) | active: 50.1 µM |
| CCOC(=O)c1cccc(NC(=O)CCn2cccc2)c1 | inconclusive: 89.1 µM [inhibitor, single point] |
| Cc1cc(=O)[nH]c(SCC(=O)c2ccc(O)c(O)c2)n1 | active: 56.2 µM |
| CN(CC(=O)Nc1cccc(F)c1)C(=O)c1ccccc1OCCOc1ccccc1 | inactive |
| Cc1ccc(C2=NN(C(=O)c3ccco3)C(O)(C(F)(F)F)C2)cc1 (configuration not stated) | inconclusive: 89.1 µM [inhibitor, single point] |
| C=CCc1ccc(OCC(O)CN2CCN(Cc3ccc(Cl)cc3)CC2)c(OC)c1 (configuration not stated) | inconclusive: 70.8 µM [inhibitor, single point] |
| O=C(COc1ccccc1F)Nc1ccc(OCc2cc(=O)n3ccccc3n2)cc1 | inactive |
| COc1ccc(S(=O)(=O)N(C)c2ccc(C(=O)N3CCCC3)cc2)cc1OC | inactive |
| Cc1ccc(-c2onc3ccc(Cl)cc23)cc1 | inactive |
| CCN(CC(=O)NC1CCCC1)S(=O)(=O)c1ccc(F)cc1 | inactive |
| CCOC(=O)c1cccc(NC(=O)NC(C)c2c(-n3cccc3)sc3c2CCN(C)C3)c1 (configuration not stated) | inconclusive: 35.5 µM [inhibitor, full curve] |
| Cc1cc2c(cc3c(SCC(=O)Nc4ccc(Cl)cc4F)nncn32)o1 | inconclusive: 79.4 µM [inhibitor, partial curve] |

| SMILES | Potency |
| --- | --- |
| Cc1ccc2c(c1C)NC(C)CC2C (configuration not stated) | inconclusive: 89.1 µM [inhibitor, single point] |
| Cc1ccc(C(=O)Nc2ccccc2N2CCCC2)s1 | inconclusive: 79.4 µM [inhibitor, single point] |
| Cc1ccc(Nc2c([N+](=O)[O-])c(=O)n(C)c3ccccc23)cc1C | inconclusive: 79.4 µM [inhibitor, single point] |
| COc1cccc(-c2nc(-c3ccccc3)c(-c3ccccc3)[nH]2)c1OCC(=O)O | inconclusive: 50.1 µM [inhibitor, partial curve] |
| Cc1ccc(S(=O)(=O)c2nc(-c3ccccc3F)oc2NCc2ccccc2)cc1 | inconclusive: 8.91 µM [inhibitor, full curve] |
| O=C(NCCCn1ccnc1)/C(=C\c1cccnc1)NC(=O)c1ccccc1Br | inconclusive: 79.4 µM [inhibitor, single point] |
| COc1ccc(/C=N/NC(=O)CN(Cc2ccccc2)S(=O)(=O)c2ccc3c(c2)OCCO3)cc1 | inactive |
| COc1cc([N+](=O)[O-])c(N2CCOCC2)c([N+](=O)[O-])c1OC | inconclusive: 79.4 µM [inhibitor, partial curve] |
| CCOc1ccc(NS(=O)(=O)c2cc(C(=O)N3CCN(c4ccccc4O)CC3)ccc2Cl)cc1 | inconclusive: 44.7 µM [inhibitor, partial curve] |
| O=C(CCCOc1ccc(Cl)cc1Cl)NCCCn1ccnc1 | inactive |
| COC(CNC(=O)c1ccc2nc(-c3ccccc3)c(-c3ccccc3)nc2c1)OC | inconclusive: 79.4 µM [inhibitor, single point] |
| CC(=O)Nc1ccc(-c2csc(N/N=C(/C)c3ccccc3)n2)cc1 | inconclusive: 50.1 µM [inhibitor, partial curve] |
| CCOC(=O)c1cc2sccc2n1CC(=O)N1CCc2ccccc21 | inactive |
| NC(=O)C(CC(=O)O)NC(=O)[C@@H]1CCOc2c(I)cc([N+](=O)[O-])cc2C(=O)N[C@@H](CCC(=O)O)C(=O)N[C@@H](CO)C(=O)N1 (some centres not stated) (ES[hSer(Ph(2-I,4-NO2,6-CO))][ξD]-NH2; lactam N-3) | inconclusive: 89.1 µM [inhibitor, single point] |
| CC(C)Cc1ccc(C(C)C(=O)Nc2ccc(O)cc2)cc1 (configuration not stated) | inconclusive: 79.4 µM [inhibitor, single point] |
| Cc1cccc(Cc2cnc(NC(=O)CN3C(=O)/C(=C/c4ccccc4)SC3=S)s2)c1 | inconclusive: 70.8 µM [inhibitor, single point] |
| CCS(=O)(=O)N1CCN(S(=O)(=O)c2ccc(Cl)s2)CC1 | active: 50.1 µM |
| CCC1CN(C(=O)N2CCC(C(=O)N3CCN(c4ccccc4F)CC3)CC2)c2ccccc2O1 (configuration not stated) | inconclusive: 89.1 µM [inhibitor, single point] |
| O=C(NCc1ccccn1)C(=O)Nc1nc(C23CC4CC(CC(C4)C2)C3)cs1 | inactive |
| O=C(COc1cc(F)ccc1[N+](=O)[O-])Nc1ccc(N2CCCCC2)cc1 | active: 31.6 µM |
| Fc1ccccc1Nc1nc(N2CCOCC2)nc(N2CCOCC2)n1 | inactive |
| Oc1ccc(Cl)cc1CNc1cnc2ccccc2c1 | inactive |
| Cc1[nH][nH]c(=O)c1C(c1ccc(-c2cccc(Cl)c2)o1)c1c(C)[nH][nH]c1=O | active: 39.8 µM |
| CC(=O)Nc1ccc(NC(=O)c2nc(S(=O)(=O)Cc3ccccc3)ncc2Cl)cc1 | inactive |

| SMILES | Potency |
| --- | --- |
| CCOc1c(Cl)cc(C(=O)N(Cc2ccc(N(C)C)cc2)Cc2ccco2)cc1Cl | active: 12.6 µM |
| COc1ccc(CC(=O)Nc2cc(C)ccn2)cc1 | inconclusive: 89.1 µM [inhibitor, single point] |
| Cc1ccc(C(=O)N/C(=C\c2ccc(-c3cccc([N+](=O)[O-])c3)o2)C(=O)NCCCN2CCOCC2)cc1 | inconclusive: 50.1 µM [inhibitor, partial curve] |
| O=C(Nc1ccccc1)c1cccnc1N1CCOCC1 | inactive |
| Cc1ccc2c(c1)c1c3n2CCN(C(=O)c2cccc(C(F)(F)F)c2)C3CCC1 (configuration not stated) | active: 28.2 µM |
| CCc1cccc(C)c1Nc1c(-c2ccsc2)nc2ncccn12 | inconclusive: 39.8 µM [inhibitor, partial curve] |
| O=C(CCCC(=O)NC1CCCC1)NC1CCCC1 | inactive |
| Cc1c(C)n(CCc2ccccc2)c2ncnc(NCCCO)c12 | inconclusive: 56.2 µM [inhibitor, partial curve] |
| CC(=O)c1ccc(S(=O)(=O)N2Cc3ccccc3CC2C(=O)O)cc1 (configuration not stated) | inconclusive: 79.4 µM [inhibitor, single point] |
| Clc1ccc(-c2noc(-c3cccnc3NCc3ccco3)n2)cc1 | inconclusive: 100 µM [inhibitor, single point] |
| CCNC(=O)O/N=C1\CCCCC1c1ccc([N+](=O)[O-])cc1[N+](=O)[O-] (configuration not stated) | inconclusive: 50.1 µM [inhibitor, partial curve] |
| COc1cccc(NC(=O)CNc2cc(S(=O)(=O)N3CCOCC3)ccc2N2CCCC2)c1 | inconclusive: 79.4 µM [inhibitor, single point] |
| Cc1ccc(Nc2ccc(C(=O)O)cc2N)cc1 | inactive |
| Cc1cnc(NC(=O)Cc2c[nH]c3ccccc23)s1 | inconclusive: 89.1 µM [inhibitor, single point] |
| COc1cc(-c2ncc3ccccn23)cc(OC)c1OC | active: 44.7 µM |
| COc1ccc(-c2noc(C)c2-c2ccc3ccccc3n2)c(O)c1 | inconclusive: 89.1 µM [inhibitor, single point] |
| CCc1ccc(OCC(=O)Nc2ncn[nH]2)c(Br)c1 | active: 89.1 µM |
| CCOc1ccc(Nc2nn(-c3ccc(OC(F)(F)F)cc3)nc2C(C)=O)cc1 | inactive |
| CCC(=O)Nc1ccc(C(=O)Cn2nc(C(=O)O)c3ccccc3c2=O)cc1 | inconclusive: 89.1 µM [inhibitor, single point] |
| Cc1nnc(N/N=C/c2cc(C)n(-c3ccc(F)cc3)c2C)n1N | active: 50.1 µM |
| COc1cc(/C=C2\SC(=Nc3cccnc3)NC2=O)cc(OC)c1OC | inconclusive: 79.4 µM [inhibitor, single point] |
| COc1cccc(-c2noc(-c3cc(C(C)C)[nH]n3)n2)c1OC | inactive |
| COc1cc(C(=O)NC(=S)Nc2ccc3c(c2)C(=O)N(C)C3=O)cc(OC)c1OC | inactive |
| O=C(Nc1ccc(S(=O)(=O)Nc2nccs2)cc1)c1cnc(Cl)c(Cl)c1 | inconclusive: 89.1 µM [inhibitor, single point] |
